The source of these data is PubChem BioAssay AID1508623 (National Center for Advancing Translational Sciences (NCATS), 2021).

The campaign covered roughly 48,000 compounds. About 450 (0.94%) were called active. Not shown: some 19% with an inconclusive outcome. Calls come from the whole dose curve; as a rule, active = well fitted inhibition curve with a large enough effect; inconclusive = small, poorly fitted or top-dose-only effect; inactive = no such curve, though single readings can be large or run the other way. The list shows a part of the results.

The nature of the experiment: Primary qHTS for Identification of Small Molecule Inhibitors of Huntingtin Promoter Activity. Note: nearly all actives have a fitted effect of over 50% in size. The conditions noted are these: HEK293 HTT promoter firefly luciferase reporter (activity 0% = vehicle and -100% = no light), 24 h; series mostly up to 57.5 µM; activity change, negative = inhibition: at the top concentration. The method, boiled down:
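HEK293 Fluc reporter, 2,500 cells/well, 24 h pre-culture; cpds up to 57.5 uM final, 24 h 37 degrees C; Dual-Glo, 10 min RT; normalized vehicle = 0%, zero RLU = -100%.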
A general note: Quantitative high-throughput screening tests each substance at several concentrations.
`O=c1oc2ccc3ccccc3c2cc1-c1nnc(Nc2cc(C(F)(F)F)ccc2Cl)s1`: the “activity change, negative = inhibition” value was inactive: 18.4%. On to `O=S(=O)(c1cccc(Cl)c1)c1nnn2c1nc(NC1CCCC1)c1sccc12`, for which the “activity change, negative = inhibition” value is inactive: -25.2%.

Take `CCc1ccc(CNC(=O)c2cc3c(s2)-c2ccccc2OC3)cc1`: the “activity change, negative = inhibition” value was inactive: -17.9%. For `Cc1nc(N2CCCC2)ncc1C(=O)NCc1ccccc1Cl` the value was inactive: 0.0113%. In the case of `COc1cc(NC(=O)CSc2nc3nc(C)c(Cc4ccccc4)c(C)n3n2)cc(OC)c1OC`, the “activity change, negative = inhibition” value was inactive: -34.6%. In the case of `CC[C@H](C)n1cc(C)c2c(C(=O)NCc3c(C)cc(C)[nH]c3=O)cc(-c3ccc(N4CCNCC4)nc3)cc21`, the “activity change, negative = inhibition” value is inactive: -3.81%.

In the case of `Nc1cccc(S(=O)(=O)N2CCCN(S(=O)(=O)c3ccc4c(c3)OCCO4)CC2)c1`, the “activity change, negative = inhibition” value was inactive: -8.97%. The value for `COc1ccc(CC(=O)Nc2sc3c(c2C(=O)Nc2ccc(C)cc2)CCCCC3)cc1` was inactive: 2.63%. The value for `CCc1cccc(C)c1Nc1c(-c2cccc(O)c2)nc2sccn12` was inactive: -9.56%; that for `Cc1cc(NC(=O)CSc2ncc(C(=O)Nc3ccccc3)c(=O)n2C)no1` was inactive: -11.4%; that for `O=C(NCc1ccccn1)c1nn(-c2ccccc2Cl)nc1CO` was inactive: -1.37%. For `Cc1ccccc1NC(=O)c1ccc(CNS(=O)(=O)c2ccc3c(c2)C(C)(C)C(=O)N3C)cc1` the value was inactive: -15.8%; for `COc1ccccc1CNC(=O)C(Cc1ccccc1)NS(=O)(=O)c1ccc2c(c1)CCN2C(C)=O` (configuration not stated), inactive: -9.53%. Turning to `CCN(CC)C(=O)C1=C(C)Nc2nc3ccccc3n2C1c1ccc(Cl)cc1` (configuration not stated), the “activity change, negative = inhibition” value is inactive: -0.041%.

On to `CSc1ncc(C(=O)Nc2cccc(Cl)c2C)c(-c2ccccc2)n1`, for which the “activity change, negative = inhibition” value is inactive: 7.69%. The value for `CC(=O)OC/C=C(C)/C=C/C=C(C)/C=C/C1=C(C)CCCC1(C)C` was inactive: 4.53%. The value for `Cc1ccc(Cl)cc1N(C)C(=O)c1cc2ccc3cccnc3c2[nH]1` was inactive: 3.78%; that for `CCNC(=O)CC1C(=O)N(c2ccc(F)cc2)C(=O)N1Cc1ccc(C)cc1` (configuration not stated) was inactive: -7.1%; that for `CCOc1ccccc1C(=O)NCC(c1ccc(N(C)C)cc1)N1CCCC1` (configuration not stated) was inactive: -5.48%.

Take `CSc1ccc(CCNC(=O)c2ccc3c(c2)c(C)c(C)n3Cc2ccc(F)cc2)cc1`: the “activity change, negative = inhibition” value is inactive: -29.4%. For `CCn1c(CN2CCN(C)CC2)nc2cc(NC(=O)c3cc(OC)c(OC)c(OC)c3)ccc21` the value was inactive: 12.8%; for `CCOC(=O)CNC(=O)Cn1nc(N2CCN(c3ccccc3)CC2)ccc1=O`, inactive: 1.53%; for `CC(=O)c1cccc(NC(=O)c2cc(-c3ccc4c(c3)OCCO4)on2)c1`, inactive: -1.74%.

For `CCN(CC)C(=O)C1CCCN(c2ncnc3c2nc2n3CCCCC2)C1` (configuration not stated), the “activity change, negative = inhibition” value is inactive: -12.7%. In the case of `COc1ccc(CCNC(=O)c2cc3c(=O)[nH]c4ccc(C)cc4c3s2)cc1OC`, the “activity change, negative = inhibition” value is inactive: -16.4%. For `COC(=O)c1ccccc1NC(=O)CCCS(=O)(=O)c1nc(-c2ccccc2OC)cc(C(F)(F)F)n1` the value was inactive: 3.15%.

As for `CCOc1ccccc1CNC(=O)CN1C(=O)C2CCCCN2c2ccc(C(=O)N(C)C)cc21` (configuration not stated), the “activity change, negative = inhibition” value is inactive: -7.94%. As to `CCOc1ccc(OCC)c(NC(=O)c2c(C)nn(-c3ccccc3)c2-n2cccc2)c1`, the “activity change, negative = inhibition” value was inactive: -27.4%. For `COc1ccc(CCCc2nnc(SCC(=O)Nc3ccc(Cl)cc3)o2)cc1` the value was inactive: -6.94% [at 11.5 µM]; for `Cc1nn(C)c2c1c(C(F)(F)F)cc(=O)n2CC(=O)NC(C)(C)C`, inactive: -4.55%; for `CCc1ccccc1NC(=O)c1ccc2[nH]c(C)c(C)c2c1`, inactive: 54%.

Regarding `CCc1ccc(CNC(=O)c2sc3ncnc(N(C)C4CCCCC4)c3c2C)cc1`, the “activity change, negative = inhibition” value is inactive: -28.6%.

On to `COc1ccc(-c2cc(-c3ccc(F)cc3)nc3c2COc2ccccc2-3)cc1`, for which the “activity change, negative = inhibition” value was inactive: -14.1%. The value for `CCOc1ccccc1C1Nc2ccccc2-c2nnc(SCc3ccccc3)nc2O1` (configuration not stated) was inactive: -3.3%; that for `Cc1c(C(=O)NCc2ccccc2)oc2c1-c1[nH]ncc1CC2` was inactive: 14.5%; that for `CCCN(C(=O)Cn1nc(Cc2ccncc2)c2ccccc2c1=O)c1ccccc1C` was inactive: -21.9%. For `CCOc1ccc(-c2nnc(SCC(=O)NCCc3ccccc3)nc2-c2ccc(OCC)c(OC)c2)cc1OC`, the “activity change, negative = inhibition” value was inactive: 5.21%.

With `COc1ccc(Br)cc1CNC(=O)c1ccc(-n2c(C)cc3c2CCC(C)C3)cc1` (configuration not stated), the “activity change, negative = inhibition” value was inactive: -3.72%. Turning to `Cc1cc(O)c(CN2CCN(c3ccc(F)cc3)CC2)c2oc(=O)cc(C)c12`, the “activity change, negative = inhibition” value is inactive: -22.6%. With `CCOc1ccc(CCNC(=O)c2nn(-c3ccc(OC)cc3)c(=O)c3c2c2ccccc2n3C)cc1OCC`, the “activity change, negative = inhibition” value is inactive: -14.8%.

For `Cc1ccc2[nH]c3c(=O)n(CC(=O)N(C)Cc4ccccc4)ncc3c2c1`, the “activity change, negative = inhibition” value was inactive: -3.71%. On to `CCN(CC)C(=O)c1ccccc1NC(=O)c1cccc(S(=O)(=O)N2CCC(C)CC2)c1`, for which the “activity change, negative = inhibition” value is inactive: -22.6%. The value for `COc1cccc(CNC(=O)c2ccc(CS(=O)Cc3ccc(Cl)cc3)o2)c1` (configuration not stated) was inactive: -21.7%; that for `N#Cc1cc2c(=O)n3ccccc3nc2n(-c2nnc(SCc3ccccc3)s2)c1=O` was inactive: -7.03%.

In the case of `Cc1ccc(C(=O)CSc2nnc3ccc4ccccc4n23)cc1`, the “activity change, negative = inhibition” value was inactive: 6.41%. For `Cc1ccc(CNC(=O)C2CCN(c3ncnc4c3nc3n4CCCCC3)CC2)cc1` the value was inactive: 7%; for `Cc1ccccc1CNC(=O)c1ccc2c(c1)N(Cc1ccccc1)CCS2`, inactive: -9.3%; for `O=C(CCCn1c(=O)c2cccn2c2cccnc21)Nc1ccccc1Br`, inactive: 3.33%.

In the case of `O=c1oc2ccc3ccccc3c2cc1-c1nnc(Nc2cccc(F)c2)s1`, the “activity change, negative = inhibition” value is inactive: 33.6%.

For `CCN1CCOC(=O)C1CC(=O)Nc1cc(Cl)ccc1OC` (configuration not stated), the “activity change, negative = inhibition” value was inactive: -4.72%. The value for `Oc1ccc(C=Cc2cc(O)cc(O)c2)cc1` was inactive: 19.9%. Regarding `CCCCn1c(=O)c2oc3ccccc3c2n(CC(=O)Nc2ccccc2OC)c1=O`, the “activity change, negative = inhibition” value is inactive: 1.03%.

`CCOC(=O)c1c(NC(=O)/C=C/c2ccc(OCC)cc2)sc2c1CCC2`: the “activity change, negative = inhibition” value is inactive: -4.81%. As to `Cc1ccc(CNC(=O)Cn2cc(C(=O)c3ccc(Cl)cc3)c(=O)c3ccc(C)nc32)cc1`, the “activity change, negative = inhibition” value is inactive: 7.75%. The value for `CCCCNC(=O)[C@@H](c1ccccc1)N1Cc2ccccc2C1=O` was inactive: -14.6%; that for `O=C(CCn1c(=O)c2cccn2c2cccnc21)N1CCN(c2ccc(Cl)cc2)CC1` was inactive: -12.2%; that for `CNc1oc(/C=C/c2cc(OC)c(OC)c(OC)c2)nc1C#N` was inactive: 17.4%.

As to `CCOc1ccccc1NC(=O)CSc1nccn1Cc1ccc(F)cc1`, the “activity change, negative = inhibition” value was inactive: -28.2%. As to `O=C(OCC1CCCO1)c1ccc2c(c1)N(Cc1ccccc1F)C(=O)c1ccccc1S2(=O)=O` (configuration not stated), the “activity change, negative = inhibition” value is inactive: 3.29%. For `Cc1cccc(CNC(=O)c2cnc3sc(N4CCOCC4)nn3c2=O)c1` the value was inactive: 10.7%; for `Cc1sc2ncn(CC(=O)N(C)c3ccc(Br)cc3)c(=O)c2c1S(=O)(=O)N1CCC(C)CC1`, inactive: 7.11%; for `Cc1cccc(NC(=O)c2c(C)oc3ncn(CC(C)C)c(=O)c23)n1`, inactive: 0%. The value for `CC(=O)N1CCc2cc(S(=O)(=O)CCC(=O)N3CCN(c4cccc(C)c4C)CC3)ccc21` was inactive: -6.93%; that for `O=C(NCCc1ccccc1)c1cc(-c2ccc(Cl)cc2)on1` was inactive: 3.63%.

Regarding `COc1cccc(NC(=O)Nc2cccc(-c3cn4cccnc4n3)c2)c1`, the “activity change, negative = inhibition” value was inactive: 6.66%. For `CCOc1ccc(-c2nnc(Nc3ccc(S(N)(=O)=O)cc3)c3ccccc23)cc1` the value was inactive: -7.72%; for `CC(C)(C)c1ccc(OCC(=O)N2CCC(c3nc4ccccc4s3)CC2)cc1`, inactive: -12.6% [at 11.5 µM]; for `CCCOC1(C(F)(F)F)NC(=O)N(c2ccc(Cl)cc2)C1=O` (configuration not stated), inactive: -29.9%. The value for `O=C(NC(=O)c1ccc(F)cc1)Nc1ccc(-c2cc(C(F)(F)F)nn2-c2ccccc2)cc1` was inactive: 1.31%. The value for `Cc1oc2c(c(C)cc3oc(=O)c(CC(=O)NCCc4ccccc4)c(C)c32)c1C` was inactive: -12.5%; that for `Cc1ccc(NC(=O)Nc2ccc3c(c2)N(C)C(=O)c2ccccc2S3)c(C)c1` was inactive: 5.39%; that for `CCOC(=O)c1c(C)[nH]c(C)c1S(=O)(=O)NCC(=O)Nc1cc(C)ccc1OC` was inactive: -5.29%. Take `CCN1CCN(CCCNC(=O)c2cnn(-c3ccccc3)c2C2CCN(C(=O)OC(C)(C)C)CC2)CC1`: the “activity change, negative = inhibition” value was inactive: -2.11%. For `Cc1ccc(-c2c(CN3CCN(c4cccc(C(F)(F)F)c4)CC3)csc2C)cc1` the value was inactive: -11.2%; for `COc1cccc(C2C=C(c3ccc(C)c(C)c3)Nc3nnnn32)c1OC` (configuration not stated), inactive: -23.1%; for `O=C(O)CCCC[C@@H]1SC[C@@H]2NC(=O)N[C@@H]21`, inactive: 24%. For `CN1CCN(c2cc3c(cc2F)c(=O)c(C(=O)O)cn3-c2ccc(F)cc2)CC1` the value was inactive: 3.05%. On to `COc1cc(NC(=O)c2ccc(C)cc2)ccc1NC(=O)c1cc2ccccc2o1`, for which the “activity change, negative = inhibition” value is inactive: 10.1%.

`Cc1ccc(C)c(CN2C(=O)C(=O)c3ccccc32)c1`: the “activity change, negative = inhibition” value was inactive: -24%. Consider `COCC(=O)Nc1c(I)c(C(=O)NCC(O)CO)c(I)c(C(=O)N(C)CC(O)CO)c1I` (configuration not stated), for which the “activity change, negative = inhibition” value is inactive: 5.46%. For the compound `O=C(NCCc1ccccc1)c1ccc(CS(=O)(=O)c2ccc(Br)cc2)o1`, the “activity change, negative = inhibition” value was inactive: -12.5%.

As for `Cc1cc2nn(-c3ccccc3)nc2cc1NC(=O)c1cccc2c(Cl)cccc12`, the “activity change, negative = inhibition” value is inactive: 6.76%.

As for `CCSc1nnc2n(-c3cccc(C)c3)c(=O)c3c4c(sc3n12)CCCC4`, the “activity change, negative = inhibition” value was inactive: -6.91%. For `Cc1coc2ccccc2c1=O`, the “activity change, negative = inhibition” value is inactive: 2.02%. Take `Cc1ccc2onc(CNC(=O)N3CCN(c4cccc(C)c4C)CC3)c2c1`: the “activity change, negative = inhibition” value was inactive: -47.3%. `CCN(CCCNC(=O)Cn1ncc2c([nH]c3ccc(C)cc32)c1=O)c1cccc(C)c1`: the “activity change, negative = inhibition” value was inactive: 1.3%. The value for `COc1ccc(C2CC(=O)Nc3c2c(C)nn3-c2nncc(-c3ccc(C)cc3)n2)c(OC)c1OC` (configuration not stated) was inactive: -16.9%; that for `Cc1cccc(CCNC(=O)c2sc3nc4n(c(=O)c3c2C)CCCC4)c1` was inactive: 40.1%; that for `Cc1csc2nc(-c3cccc(NC(=O)C(C)C)c3)cn12` was inactive: 4.38%.

Take `CCOc1ccc(-c2nc(SCC(=O)Nc3ccc4c(c3)OCO4)c(-c3ccc(F)cc3)[nH]2)cc1`: the “activity change, negative = inhibition” value was inactive: -27.5%. For `O=C1c2oc3ccccc3c(=O)c2C(c2ccccc2)N1Cc1ccc2c(c1)OCO2` (configuration not stated) the value was inactive: -15.1%; for `CN1C(=O)c2ccccc2Sc2ccc(NC(=O)c3ccccc3F)cc21`, inactive: -29.2%.

For `CCOC(=O)c1cccc(NC(=O)[C@@H](c2ccccc2)N2Cc3ccccc3C2=O)c1`, the “activity change, negative = inhibition” value was inactive: -16.9%. For `Cc1c(-c2nsc(NC(=O)c3ccccc3)n2)nnn1-c1ccc(C(F)(F)F)c(Cl)c1` the value was inactive: -20.9%; for `Cc1cc(C)c(NC(=O)Cc2csc(C)n2)c(Cl)c1`, inactive: 15.3%; for `CC1COc2c(N3CCN(C)CC3)c(F)cc3c(=O)c(C(=O)O)cn1c23` (configuration not stated), “inactive”. The value for `CCN1C(=O)c2ccccc2Sc2ccc(C(=O)NCCCN(CC(C)C)CC(C)C)cc21` was inactive: -4.62%.
